Measured values taken from the supplement of paper PMC8728848.
The full list was thinned out, with the strongest signals kept by preference.

system: Gal(b1-3)GlcNAc(b1-3)Gal(b1-4)Glc; test: glycan array binding signal (z-score within array); higher = stronger binding; conditions: glycan notation: IUPAC condensed, linker removed
In short: (§1)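 The binding signal is a Z-score computed within each array. Data were drawn from 3228 arrays in the Consortium for Functional Glycomics database, restricted to those with a known protein sequence. Scores were averaged over arrays of the same protein sequence at different concentrations or buffers, and over linkers, and negative values can be taken as non-binding.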

Substance | glycan array binding signal (z-score)
Gal 8 long (Homo sapiens) (chain not printed) | -0.22
Gal 3 (Homo sapiens) (chain not printed) | 0.206
NCAM1 (Homo sapiens) (chain not printed) | -0.354

system: Gal(b1-3)[Fuc(a1-4)]GlcNAc(b1-2)Man(a1-3)[Gal(b1-3)[Fuc(a1-4)]GlcNAc(b1-2)Man(a1-6)]Man(b1-4)GlcNAc(b1-4)[Fuc(a1-6)]GlcNAc; test: as above; conditions: glycan notation: IUPAC condensed, linker removed
In short: as §1

Substance | glycan array binding signal (z-score)
CLEC-2 (Homo sapiens) (chain not printed) | 0.664
M-Ficolin G221F A256V (Homo sapiens) (chain not printed) | -0.332
M-Ficolin A256V (Homo sapiens) (chain not printed) | -0.128
Collectin K1 (Homo sapiens) (chain not printed) | 2.11

system: Gal(b1-3)[Fuc(a1-4)]GlcNAc(b1-3)Gal(b1-3)[Fuc(a1-4)]GlcNAc; test: as above; conditions: glycan notation: IUPAC condensed, linker removed
In short: as §1

Substance | glycan array binding signal (z-score)
L-Ficolin (Homo sapiens) (chain not printed) | -0.516
MBP (Homo sapiens) (chain not printed) | -0.346
Collectin K1 (Homo sapiens) (chain not printed) | -0.14
